# ± gives the standard deviation. The entries are a selection whose mix differs from that of the whole data set.
# Test system: MIWI (PIWIL1) piRISC loaded with L1MC piRNA (30 nt)
# Experiment: pre-steady-state target cleavage rate (min^-1); MIWI and MILI are mouse PIWI proteins and EfPiwi is from a freshwater sponge; tags in brackets are library labels; higher = faster piRNA-guided slicing of the target
# Conditions: guide: L1MC piRNA 5'p-UAACUAAAUACUAUGCAAGCUGUAGGUCCU; auxiliary factor: 500 nM mouse GTSF1
# Procedure, shortened: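 Active affinity-purified piRISC (1 nM) loaded with one synthetic guide was mixed with a transcribed, DNA-blocked target RNA library (0.1 nM), with or without 500 nM GTSF1 partner protein, in HEPES–potassium acetate buffer at 33 °C for 0–8 or 0–960 min. Uncleaved targets were sequenced, normalised to depth and to weakly complementary targets, and pooled across three trials, with k3 capped at 0.0001 min^-1. The pre-steady-state cleavage rate was determined with a burst-and-steady-state fit.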
row,Sequence,pre-steady-state target cleavage rate
1,UCCUGGAUCAGCUUGCAUAGUAUAAAGAAA,0.0496 ± 0.012
2,UCCACCUACAGCUUGGAUAGUAUUUACAAA,0.0852 ± 0.017
3,UCCUGGUACAGCUUGCAUAGUAAUAAGUUA,0.197 ± 0.031
4,UCCUGGAUGUCCUUGCAUACUAUUUAGUAA,0.00563 ± 0.0043
5,UCCUCCUACAGCUUGCAUAGUUAUUAGAAA,0.0862 ± 0.022
6,UCCACCUACACGAUGCAUAGUAUUUAGUAA,0.322 ± 0.029
7,UCCUGGAUGUCGAACAAUAGUAUUUAGUUA,< 0.0001
8,AGGACCUACAGCUUGCAUAGUUAAAUCAAA [g10:g30:cont:t1A],0.159 ± 0.046
9,UCCUGCUACAGGAUGCAUAGUAUUUUCAAA,0.0394 ± 0.011
10,UCCUCCUACAGCUUGCAUAGUAUUAUGAAA,0.287 ± 0.046
11,UCCUGGAUGUCGUUGCAUAGUAUUUCAGUUA,0.00991 ± 0.0042
12,UGGACCUACAGCUUGCAUAGUUUUUUCAAA,0.0837 ± 0.02
13,UCCUGGAUGAGCUAGCAUAGUAUUUACAAA,0.036 ± 0.012
14,UCCUGGAUGAGGUAGCAUAGUAUUUAGUUA,0.0186 ± 0.0033
15,UCCUCCUACAGCUUCGAUAGUAUUUAGUUA,0.656 ± 0.052
16,AGGACCUACAGCUUCGAUAGUAUUUACAAA,0.0535 ± 0.017
17,UCGACCUACAGCUUGCAUUAGUAUUUAGUUA,0.264 ± 0.082
18,UCCUGGUACAGCUUGCAGUAGUAUUUAGUUA,0.00567 ± 0.0039
19,UCCUGGAUGUCGUUGCAUAGUUUUUAGAUA,< 0.0001
20,UCCUGGAUGUCGAAGGCAUAGUAUUUAGUUA,0.00396 ± 0.0036

row,Sequence,pre-steady-state target cleavage rate
1,UCCUCCUACAGCUUGCAUAGUAAAAAGUAA,0.173 ± 0.038
2,UCCUGGAACAGGAUGCAUAGUAUUUAGAAA,0.0231 ± 0.0073
3,UCCUGGAUGUCGAACCAUAGUAUUUGAGUUA,< 0.0001
4,UCCUGGAUGUGCUUGCAUAGUAUAUACUUA,0.014 ± 0.0055
5,UCCUGCUACAGCUUCCAUAGUAUUUAGUAA,0.0488 ± 0.017
6,UCCUGGAUGUCGUUGCAUAGUAUCUAGUUA,0.0183 ± 0.0042
7,UCCUGGAUGUCCUUGCAUAGCUAUUUAGUUA,0.0054 ± 0.0036
8,UCCUCCUUGUGCUUGCAUAGUAUUUACAAA,0.0913 ± 0.018
9,UCCUGCUACAGCUUCCAUAGUAUUUUGUUA,0.0104 ± 0.0052
10,UCCUGCUACAGCUUGCAAUAGUAUUUAGUUA,0.0619 ± 0.014
11,UCCUGGUACAGCUUGGUAAGUAUUUAGUAA,0.0102 ± 0.0047
12,UCCUGGAUCAGCAUGCAUAGUAUUUACAAA,0.156 ± 0.034
13,UCCUGGUACAGCUUGCAUAGUAUAAAGAAA,0.0796 ± 0.029
14,UCCUGGAUGUCGAACGUAUGUAUUUAUUUA,< 0.0001
15,UCCUGGAACAGCUUGCAUAGUAUAAAGAAA,0.167 ± 0.043
16,AGGACCUACAGCUUCCAUAGUUUUUAGUUA,0.0451 ± 0.016
17,AGGUGGUACAGCUUGCAUAGUAUUUUCAAA,0.102 ± 0.023
18,AGGACCUACAGCUUGCAUAGUUUUUUCAAA,0.264 ± 0.053
19,UCCUGGAUGUCGUUGCAUAGUAUUUAUGUUA,0.00581 ± 0.0041
